42 sequences from paper PMC7819943, “Rice protein-binding microarrays: a tool to detect cis-acting elements near promoter regions in rice” can be followed below.

Some of the results follow.

The target in this assay is T1, OsWOX13 (Oryza sativa, UniProt Q5QMM3 1-267).
T1 sequence: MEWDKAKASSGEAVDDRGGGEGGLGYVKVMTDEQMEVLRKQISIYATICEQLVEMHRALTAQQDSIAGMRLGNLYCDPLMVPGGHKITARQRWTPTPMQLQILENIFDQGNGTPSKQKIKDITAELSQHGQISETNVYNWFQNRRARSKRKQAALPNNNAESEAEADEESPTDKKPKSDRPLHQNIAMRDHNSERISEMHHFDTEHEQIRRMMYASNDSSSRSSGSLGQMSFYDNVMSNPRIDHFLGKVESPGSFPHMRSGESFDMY
The assay can be described thus: protein-binding microarray (RPBM); PBS, 2% BSA, 51.3 ng/ul salmon testes DNA, 50 uM zinc acetate, 200 nM TF, 25 C, 1 h; high values mean tight binding. The settings on record: protein: recombinant; tags: N-terminal polyhistidine and DsRed monomer fusion (pET32a); label: CyDye5-dUTP incorporated in the synthesized complementary strand; 3' TTTTT single-stranded linker to array surface; dsDNA, one strand shown. In short, it runs like this: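 In PBS with 2% BSA, salmon testes DNA and 50 µM zinc acetate, 200 nM protein was incubated on a custom Agilent array at 25 °C for 1 h and then washed off. The array had been made double-stranded by primer extension with Cy5-dUTP and blocked with 2% BSA. The proteins were transcription factors fused N-terminally to polyhistidine and DsRed, expressed in E. coli BL21-CodonPlus and purified on Ni–NTA. The binding signal is per-feature fluorescence intensity (arbitrary units) from an Axon 4000B scanner.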
As for “GCTAAATGAGTTTGTAGAAATTGATGGTCAAATATTCAAACGGAGTCACCTAGTGCAG”, the binding signal was 4000 fluorescence intensity (a.u.).
As for “ATGTTATAAATCAATGATCATACAGAGTCGTGTACTCATGCGGAGTCACCTAGTGCAG”, the figure is 4990 fluorescence intensity (a.u.); as for “GTAATTAATTAATTAAGAAATGTGTTCACTAACGAATTGCCGGAGTCACCTAGTGCAG”, 48800 fluorescence intensity (a.u.).
In the case of “CCACATAATTGTCACATAATCATAACCATATGGGACTATTCGGAGTCACCTAGTGCAG”, the binding signal was 19500 fluorescence intensity (a.u.).
To “TCACATAATTATTAATTTTACCAAATAATGATATGGTTGACGGAGTCACCTAGTGCAG” belongs 35300 fluorescence intensity (a.u.); to “TAATTAAATAATAATAATCACGCAAATCGTCACAGACTCACGGAGTCACCTAGTGCAG”, 8740 fluorescence intensity (a.u.); to “AAGATGTAATAATTGTTGGTGAATGATAATGTGACATCTTCGGAGTCACCTAGTGCAG”, 7160 fluorescence intensity (a.u.).
As for “GCTCAATTTAAACAGTCATTCGTACAGATTCTCTATAATTCGGAGTCACCTAGTGCAG”, the figure is 10000 fluorescence intensity (a.u.); as for “TTATCCATCAATCCAACGTGTTTAGCTATCTCAATCATGGCGGAGTCACCTAGTGCAG”, 5140 fluorescence intensity (a.u.).
To “ACTGATCACTGTATTAATTATAATCAGTCACACACACACCCGGAGTCACCTAGTGCAG” belongs 24500 fluorescence intensity (a.u.); to “GTGATTTGCTGTGGACACATTATCTGTGGTTAGAGACCTGCGGAGTCACCTAGTGCAG”, 8380 fluorescence intensity (a.u.); to “AGTTTGGATTTTGGTTGAAATTGAAGATAATGTGACTGAACGGAGTCACCTAGTGCAG”, 3240 fluorescence intensity (a.u.).
Turning to “TTATTCAGATGTTTCAATCAATATTTTGTGGTGTCTCACTCGGAGTCACCTAGTGCAG”, the binding signal was 8500 fluorescence intensity (a.u.).
With “GAATAATTGGTTGGTAGCTAGATTCTAATAATCAAGAGAACGGAGTCACCTAGTGCAG”, the binding signal was 18900 fluorescence intensity (a.u.).
As for “ACTATTTAATTAGCTACTTGTCTTATTGACTATTTTCCAACGGAGTCACCTAGTGCAG”, the figure is 17200 fluorescence intensity (a.u.); as for “CATGTAATGATAGAAAGATTTGGATGAGCTTTGCATACAACGGAGTCACCTAGTGCAG”, 7420 fluorescence intensity (a.u.).
To “GCTTAATTGGTGGTGATAGCGTTACGTTACTAACCAAATTCGGAGTCACCTAGTGCAG” belongs 31800 fluorescence intensity (a.u.); to “TAACTGATTAACTCACCTGCTGATTCTACAAATAAGCTACCGGAGTCACCTAGTGCAG”, 24600 fluorescence intensity (a.u.).
To “AAGTAATTGGAAAGAAGCTTGTTAGACAGTATTCCATAGTCGGAGTCACCTAGTGCAG” belongs 22600 fluorescence intensity (a.u.).
Take “TGTAATCAAATCATAAATTAGATAAACGGTTTAGGAGAAACGGAGTCACCTAGTGCAG”: the binding signal was 20500 fluorescence intensity (a.u.).
For the sequence “CGTAATTTTCACCGGATTAAGGAAGCATAGGTTCAAGTGGCGGAGTCACCTAGTGCAG”, the binding signal is 13900 fluorescence intensity (a.u.).
As for “TCCCGAAGTTCTTGATTGATGCGAGCTTGATGGCCCAAATCGGAGTCACCTAGTGCAG”, the figure is 25900 fluorescence intensity (a.u.); as for “CGTACGTCGATACTGAAATTAACCTTCAGCTTAATTTCCGCGGAGTCACCTAGTGCAG”, 3570 fluorescence intensity (a.u.); as for “TTTGATTTTCTTAAGCACAACACAAATGCAAATGCTCATGCGGAGTCACCTAGTGCAG”, 5380 fluorescence intensity (a.u.).
To “TGGTCAATCAGGTTTGTCGTCCAGCCCGCATTTCCTTGCACGGAGTCACCTAGTGCAG” belongs 17600 fluorescence intensity (a.u.); to “AAGCTTAATTTGTCGTTAAGCACCTGCAGAGCTCGCATGACGGAGTCACCTAGTGCAG”, 15800 fluorescence intensity (a.u.).
To “TTTAATTTGACGATAGATCCAATTCGTTTAATATTTCGGACGGAGTCACCTAGTGCAG” belongs 22100 fluorescence intensity (a.u.); to “TGCAAATTATAGTAAGTACTAAACAGAACAGAACACGGGACGGAGTCACCTAGTGCAG”, 6530 fluorescence intensity (a.u.); to “ACATAATTTTATTTTAAAATGGTATTAATAGTTTTCTTATCGGAGTCACCTAGTGCAG”, 32000 fluorescence intensity (a.u.).
As to “AGATGCAATTTATAATATAATTATACTATATTATATTGTACGGAGTCACCTAGTGCAG”, the binding signal was 12900 fluorescence intensity (a.u.).
To “CAAAATCACAGAAATTTTGACACGTGGCATATAATGCCAGCGGAGTCACCTAGTGCAG” belongs 8320 fluorescence intensity (a.u.); to “AAAACCAATTGCACAATTTACATGTAAATCATGAGACGAACGGAGTCACCTAGTGCAG”, 5050 fluorescence intensity (a.u.).
As for “GATCAATATGGTGATTAAATTTCCCTTCCTGCTATATTGTCGGAGTCACCTAGTGCAG”, the figure is 5260 fluorescence intensity (a.u.).
To “TTAATTAATTAGAGATTAAAGCCTTTCTCTCCCCAATCCCCGGAGTCACCTAGTGCAG” belongs 50300 fluorescence intensity (a.u.).
With “CATGATGAGTATCAGTACGGTTCAGATTCATGGTATTGGGCGGAGTCACCTAGTGCAG”, the binding signal was 7560 fluorescence intensity (a.u.).
To “ATGCAATCAACAAACTGTCATCATCTCCAAATTTGCTTCACGGAGTCACCTAGTGCAG” belongs 16000 fluorescence intensity (a.u.); to “TTTATGATTATATTCGTAATGCTACATAATTTGATATGATCGGAGTCACCTAGTGCAG”, 28100 fluorescence intensity (a.u.); to “TAGACTAGATTAATAATAAACCACCTCAATAGTATGTCTACGGAGTCACCTAGTGCAG”, 3150 fluorescence intensity (a.u.).
As for “AGTCAATCTCCCCGTCTGTCTTCTCGGCCTCAACTCCCGTCGGAGTCACCTAGTGCAG”, the figure is 6610 fluorescence intensity (a.u.); as for “TCTAATTGTTAGGCCAATTGTCAATAGCCTATAAACAACCCGGAGTCACCTAGTGCAG”, 32400 fluorescence intensity (a.u.).
As for “TAATAGCTAATTAGACAATTTGAGTACTACGAATCCGAAACGGAGTCACCTAGTGCAG”, the figure is 14900 fluorescence intensity (a.u.); as for “TAAGGGCTATAATTTTGCTGTTAATTGTTCACTAGAAGAGCGGAGTCACCTAGTGCAG”, 3820 fluorescence intensity (a.u.).
